From PubChem BioAssay AID1159614 (National Center for Advancing Translational Sciences (NCATS), 2016)
The whole screen tested about 45,000 compounds, of which about 65 (0.1%) were called active. The call rests on the fitted dose curve; in most records, active means well fitted activation curve with a large enough effect; inconclusive means small, poorly fitted or top-dose-only effect; inactive means no such curve, though single readings can be large or run the other way. Some of the results follow. Square brackets hold non-standard residues; d marks the D form. Peptide text beside a SMILES is read from it. * marks the point of attachment. Sta = CC(C)C[C@H](N)[C@@H](O)CC(=O)O; Isovaleryl = CC(C)CC(=O)*

biological target: Galactocerebrosidase (Homo sapiens) (UniProt P54803); experiment: A Novel Cell-Based Assay to Identify Small Molecules for B -Galactocerebrosidase; settings: 145M-Twi-hGALC-G270D cells (Twitcher mouse brain line with human GALC G270D), HMU-beta-Gal fluorescence, 48 h; series mostly up to 57.5 µM; activation: at the top concentration; further: 0% is about no effect; nearly all actives have a fitted effect of over 65% in size
In short: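 Brain-derived Twitcher mouse 145M-Twi cells stably expressing human GALC-G270D or wild-type GALC, treated live, then residual GALC activity read by fluorescence of HMU-b-Gal substrate (0.1 mM final) in citrate-phosphate buffer pH 5.2 with sodium taurocholate. Signal increase indicates enhancement.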

Sequence of UniProt P54803 (P54803 whole entry, looked up): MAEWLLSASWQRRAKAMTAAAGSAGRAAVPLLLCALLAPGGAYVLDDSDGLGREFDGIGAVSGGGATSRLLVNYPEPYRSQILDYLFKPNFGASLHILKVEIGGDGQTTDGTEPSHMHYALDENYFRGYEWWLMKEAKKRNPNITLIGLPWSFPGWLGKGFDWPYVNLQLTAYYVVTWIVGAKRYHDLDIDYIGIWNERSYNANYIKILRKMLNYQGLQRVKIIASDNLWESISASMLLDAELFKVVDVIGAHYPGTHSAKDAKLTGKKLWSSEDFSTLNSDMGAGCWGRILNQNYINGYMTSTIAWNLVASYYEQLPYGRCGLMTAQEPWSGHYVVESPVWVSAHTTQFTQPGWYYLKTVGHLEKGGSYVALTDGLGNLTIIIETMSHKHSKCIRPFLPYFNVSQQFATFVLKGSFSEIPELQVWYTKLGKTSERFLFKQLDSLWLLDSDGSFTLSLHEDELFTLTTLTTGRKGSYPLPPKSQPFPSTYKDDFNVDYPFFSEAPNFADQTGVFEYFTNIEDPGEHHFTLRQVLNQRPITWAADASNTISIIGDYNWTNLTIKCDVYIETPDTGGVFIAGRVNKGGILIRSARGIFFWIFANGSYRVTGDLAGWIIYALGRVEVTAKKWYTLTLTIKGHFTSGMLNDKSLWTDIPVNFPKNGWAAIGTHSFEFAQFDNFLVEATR

activation, inactive:
O=C(NCc1ccc2c(c1)CCN2C(=O)c1ccccc1)c1ccco1 -12%
O=C(Nc1ccc(S(=O)(=O)N(Cc2ccccc2)c2ccccc2)cc1)c1ccc([N+](=O)[O-])cc1 -20%
O=c1cc[nH]c(=S)[nH]1 -14.2%
CCCCCOC(=O)c1ccc(OC(=O)c2sc3ncn(Cc4cccc(F)c4)c(=O)c3c2C)cc1 -10%
CCOC(=O)c1cc(S(=O)(=O)N2CCN(c3ccc(F)cc3)CC2)[nH]n1 -8.04%
CCCN(CCC)CCNC(=O)C1CCCN(S(=O)(=O)c2cccc3nsnc23)C1 (stereo not drawn) -18.4%
Cc1ccc(C)c(N2CCN(CCCNC(=O)c3nnc(Cc4ccc(F)cc4Cl)o3)CC2)c1 -10.5%
CCC1=C(c2ccc(C)cc2)S(=O)(=O)N=C1N1CCC(C(=O)NCc2ccccc2Cl)CC1 -48.7%
CC(C)Cn1cc(C(=O)N2CCN(c3cccc(Cl)c3)CC2)c2c3ccccc3n(C)c2c1=O 0.978%
CCOC(=O)c1cnc2ccc(OCC)cc2c1Nc1cc(Cl)c(OC)cc1OC -17.6%
CC(=O)N1CCCc2cc(S(=O)(=O)N3CCCC(C(=O)Nc4cccc(Cl)c4C)C3)ccc21 (stereo not drawn) -18.2%
CC(C)CC(=O)N[C@H](C(=O)N[C@H](C(=O)N[C@@H](CC(C)C)[C@@H](O)CC(=O)N[C@@H](C)C(=O)N[C@@H](CC(C)C)[C@@H](O)CC(=O)O)C(C)C)C(C)C (Isovaleryl-VV[Sta]A[Sta]-OH) -11.7%
CCOc1cc2[nH]c(=O)n(CCCC(=O)N3CCN(c4cccc(Cl)c4)CC3)c(=O)c2cc1OCC -9.94%
Cc1nc(SCc2ccc(Cl)cc2)c(C#N)c(C)c1Cl -23.3%
COc1ccc(OC)c(CNc2sc3c(c2C(=O)Nc2cc(OC)ccc2OC)CCCC3)c1 -15.4%
COc1ccc(OC)c(NC(=O)N2CCC(CN3CCCCC3)CC2)c1 -9.17%
CCCCc1ccc(NC(=O)c2ccc3c(c2)CCN3S(=O)(=O)c2ccccc2)cc1 -27.6%
COC(=O)c1ccc(Cn2c(SCC(=O)N(C)c3ccccc3)nc3ccccc32)cc1 -19.3%
CCOc1cc(C(=O)Nc2ccc(S(=O)(=O)Nc3cc(OC)nc(OC)n3)cc2)cc(OCC)c1OCC -37.7%
Cc1ccc(C)c(OC(=O)CSc2nnc(-c3ccc4c(c3)OCO4)o2)c1 -9.61%
O=C(NCc1ccccc1)c1ccc2c(c1)nc1n2CCCCC1 -9.66%
Cc1cc(C)cc(NC(=O)Cn2c3ncccc3c(=O)n2-c2ccc(C)c(C)c2)c1 -13.1%
Cc1ccc(CSc2ncc(Cl)c(C(=O)Nc3sc4c(c3C(N)=O)CCCC4)n2)cc1 -14.1%
O=C(Cn1cnc2nc3c(cc2c1=O)CCCC3)N1CCN(c2ccccc2)CC1 1.13%
CCc1nn2c(=O)cc(COc3ccc(/C=C(\C#N)C(=O)Nc4ccc(C)cc4)cc3)nc2s1 2.84%
Cc1cccc(N2CCN(Cc3nnc(-c4ccc5c(c4)OCO5)o3)CC2)c1C -5.52%
COc1ccc(NC(=O)Nc2ccccc2OCc2cc(=O)n3ccccc3n2)c(OC)c1 7.91%
CC(C)(C)C1CCC(CC2=C(O)c3ccccc3C(=O)C2=O)CC1 (stereo not drawn) -5.48%
O=C(CN1C(=O)C2CCCCN2c2ccc(C(=O)N3CCCC3)cc21)NCc1cccc(F)c1 (stereo not drawn) -7.56%
Cc1ccccc1CNC(=O)C(=O)NCC(c1cccs1)S(=O)(=O)c1ccc(Cl)cc1 (stereo not drawn) -7.6%
CCc1ccc(NC(=O)Cn2c(=O)n(CC3CCCO3)c(=O)c3cc(OC)c(OC)cc32)cc1 (stereo not drawn) -1.33%
O=C(Cn1c(=O)c2cccn2c2ccc(F)cc21)N1CCN(c2ccccc2)CC1 -12.2%
Cc1ccc(-c2cc(C(F)(F)F)c(C#N)c(SCC(=O)O)n2)cc1 -37.1%
O=c1c(=O)n(Cc2c(F)cccc2Cl)ccn1Cc1ccccc1 -13.4%
CC(=O)N1CCc2c(sc3c2c(=O)n(CCc2ccccc2)c(=O)n3Cc2cccc(C)c2)C1 -19.8%
CC(=O)N1c2ccc(S(=O)(=O)N3CCN(c4cccc(Cl)c4)CC3)cc2CC1C (stereo not drawn) 5%
CCOc1cc(C2C(C(=O)OC)=C(C)NC3=C2C(=O)c2ccccc23)c(Br)cc1O (stereo not drawn) 19.8%
COc1ccc2oc(-c3ccc(C)c(NC(=O)CSc4ccc(Cl)cc4)c3)nc2c1 -1.55%
CC(C)NC(=O)Cn1nc(N2CCN(c3ccccc3)CC2)ccc1=O 4.61%
COCCN1Cc2cccc(C(=O)Nc3ccc(Cl)cc3Cl)c2C1=O -20.5%
C[C@H](O)C(=O)Nc1c(I)c(C(=O)NC(CO)CO)c(I)c(C(=O)NC(CO)CO)c1I -15.4%
CCN(CC)c1ccc(NC(=O)CN2C(=O)c3cccnc3Sc3ccccc32)c(C)c1 -15.4%
COc1cccc(NC(=O)Cn2c(=O)n(CC(=O)NCCc3ccccc3)c(=O)c3sccc32)c1 -10.4%
Cc1ccc(-c2c3c(=O)n(C)c(=O)n(C)c3cn2-c2cc(C)ccc2O)cc1 -14.6%
COc1ccc(N2CCN(C3C(=O)c4ccccc4N3C(C)=O)CC2)cc1 (stereo not drawn) 0.0583%
Cc1c(Cl)cccc1-n1ncc(C(=O)Nc2ccc(F)cc2F)c1C1CCN(C(=O)OC(C)(C)C)CC1 -18.8%
COC(=O)C1CCN(C(c2ccccc2)c2sc3nc(-c4ccco4)nn3c2O)CC1 (stereo not drawn) -22%
O=C1CC(c2nc(-c3ccccc3)no2)CN1c1ccc2c(c1)OCCO2 (stereo not drawn) -13.6%
Cc1c(Cl)cccc1NC(=O)CSc1nc(=O)n(Cc2cccnc2)c2c1CCC2 -11.3%
Cc1ccc(CNC(=O)C2CCN(C(=O)c3cnn(-c4ccccc4)c3-n3cccc3)CC2)cc1 -1.53%
CCOc1cccc(NC(=O)c2ccc(F)c(S(=O)(=O)N(CC)c3cccc(C)c3)c2)c1 -2.56%
Cc1ccc(Cn2cc(S(=O)(=O)c3ccc(C)cc3)c(=O)c3cc(F)c(N4CCCC4)cc32)cc1 -5.82%
Cc1cccc(C(=O)NCC(=O)OCc2cc(=O)n3nc(C4CC4)sc3n2)c1 -8.3%
CCOC(=O)Cn1c(=O)n(C2CCCCC2)c2nc(-c3cccc(OC)c3)nc(C(N)=O)c21 -10.1%
Cc1cc(C)cc(NC(=O)CCc2c(C)nc3c4cccnc4nn3c2C)c1 -11.7%
Cc1cccc(NC(=O)Cc2csc(COc3cccc(C)c3)n2)c1 -20.4%
Cc1ccc(CNC(=O)Cn2c(=O)n(-c3cccc(Cl)c3)c(=O)c3sc4ccccc4c32)cc1 -5.79%
CCOC(=O)C1CCCN(S(=O)(=O)c2csc(C(N)=O)c2)C1 (stereo not drawn) -13.1%
